What all share (experiment): Primary Screen for Target Class Profiling of Small Molecule Inhibitors of Methyltransferases
For assay [1], the target named is Glycine N-methyltransferase (Homo sapiens) (UniProt Q14749). Conditions: purified enzyme, MTase-Glo SAH luminescence; measured here: GNMT inhibition; at 40 µM; stronger effect = lower value. In a few lines:
(§1)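 Each enzyme was assayed with SAM and its substrate. SAH formation detected by MTase-Glo luminescence; single-point 40 uM screen[…].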

In assay [2] the target is Guanidinoacetate N-methyltransferase (Homo sapiens) (UniProt Q14353). Conditions: purified enzyme, MTase-Glo SAH luminescence; measured here: GAMT inhibition; at 40 µM; stronger effect = lower value. In a few lines: as §1
Assay [3] deals with Histamine N-methyltransferase (Homo sapiens) (UniProt P50135). The note with it: purified enzyme, MTase-Glo SAH luminescence; measured here: HNMT inhibition; at 40 µM; stronger effect = lower value. The gist of the method: as §1
In assay [4] the target is Nicotinamide N-methyltransferase (Homo sapiens) (UniProt P40261). The note with it: purified enzyme, MTase-Glo SAH luminescence; measured here: NNMT inhibition; at 40 µM; stronger effect = lower value. The gist of the method:
as §1

In assay [5] the target is Phenylethanolamine N-methyltransferase (Homo sapiens) (UniProt P11086). The note with it: purified enzyme, MTase-Glo SAH luminescence; measured here: PNMT inhibition; at 40 µM; stronger effect = lower value. In a few lines: as §1

Experimental findings from PubChem BioAssay AID1745853 (National Center for Advancing Translational Sciences (NCATS), 2022) are described below.

The other results are listed elsewhere or left out. Further columns of the screen follow, without active or inactive calls.
% is set by controls: 0 for no effect and ±100 for the full control effect.

In the case of `CN1C(=O)c2cc(C(=O)NCCCN3CCCC3=O)nn2CC1(C)C(=O)NC1CCCCC1` (stereo not given), the activity change, negative = inhibition in assay [1] was found to be 8.31%; in assay [2], 0.956%; in assay [3], 8.02%; in assay [4], 5.84%; in assay [5], 4.19%.
For `COC1=Cc2c(nc3n(c2=O)C(C)C(=O)NC3(O)C(C)C)OC=C1` (stereo not given), in that order: -5.18%, -7.44%, 0.237%, -14.4% and -2.72%.
Taken in the same sequence, the figures for `COc1ccc(-c2cc3n(n2)CC(C)(C(=O)NCc2ccccc2)N(c2cccc(SC)c2)C3=O)cc1` (stereo not given) were -1.35%, 4.6%, 0.468%, -2.54% and -2.81%.
`CCCCNc1nc2c(-c3ccccc3)nnn2c2ccccc12`: the activity change, negative = inhibition in assay [1] was -0.666%; in assay [2], 3.97%; in assay [3], -5.39%; in assay [4] it was -5.45%; in assay [5] it was -8.06%.
On to `Oc1ccc2nc(CN3CCC(Cc4ccccc4F)CC3)[nH]c2c1`, for which the activity change, negative = inhibition was -1.44% in assay [1]; -4.88% in assay [2]; 0.719% in assay [3]; -25.4% in assay [4]; -12.4% in assay [5].
Taken in the same sequence, the figures for `Cc1cccc(CN2CCN3C(=O)N(Cc4ccc(F)cc4)C[C@H]3C2)n1` were -7.81%, -13.9%, -4.42%, -12.7% and -7.73%.
Taken in the same sequence, the figures for `Cc1noc(=O)c2ccc(NC(=O)C(O)(CC(C)(C)c3cccc4c3OCC4)C(F)(F)F)cc12` (stereo not given) were 0.207%, 1.71%, 7.08%, -15.6% and -1.66%.
Taken in the same sequence, the figures for `Cc1ccc(N2C(=O)c3cc(C(C)(C)C)nn3CC2(C)C(=O)NCc2ccccc2)c(C)c1` (stereo not given) were 3.92%, 6.5%, -1.67%, 4.21% and -1.48%.
In the case of `CCCN1C(=O)c2c(C(=O)Nc3cccc(Cl)c3)ncn2CC1(C)C(=O)NCc1ccc(OC)cc1` (stereo not given), the activity change, negative = inhibition in assay [1] was -10.3%; in assay [2], 0%; in assay [3], -1.35%; in assay [4], -1.39%; in assay [5] it was -1.11%.
Taken in the same sequence, the figures for `COc1cnc(-c2ccc(Cn3c(CC(C)(C)C(=O)O)c(SC(C)(C)C)c4cc(OC[C@@H]5Cc6ccccc6N5C(C)=O)ccc43)cc2)nc1` were -7.77%, -0.946%, 10%, -51.1% and -3.17%.
For `Cc1ccc(CNC(=O)CCc2nnc3n(CC(C)C)c(=O)c4ccccc4n23)cc1`, in that order: 0.44%, 0%, 9.84%, 9.62% and 1.46%.
For `COCCCN1C(=O)c2c(C(=O)OC)ncn2CC1(C)C(=O)NC1CCCCCC1` (stereo not given), in that order: 4.83%, -2.09%, 7.74%, 13.3% and 4.43%.
As to `O=C(O)c1ccc(CN2CC(COc3ccccc3)C3(C2)CN(c2ccccc2)C3)cc1` (stereo not given), the activity change, negative = inhibition in assay [1] was -14.1%; in assay [2], -8.51%; in assay [3], -5.07%; in assay [4], -20.4%; in assay [5] it was 8.7%.
Regarding `CC(C)Cn1c(=O)c2ccccc2n2c(=O)n(CC(=O)NCc3ccc(Cl)cc3)nc12`, the activity change, negative = inhibition is -8.45% in assay [1]; 0% in assay [2]; -3.24% in assay [3]; -4.53% in assay [4]; -8.06% in assay [5].
As to `Cc1ccc(-c2noc(-c3cccc(S(=O)(=O)N4CCN(c5cccc(C)c5C)CC4)c3)n2)cc1`, the activity change, negative = inhibition is -2.18% in assay [1]; -1.65% in assay [2]; -5.89% in assay [3]; -11.3% in assay [4]; -8.71% in assay [5].
Taken in the same sequence, the figures for `O=C1CN(Cc2ccccc2Cl)S(=O)(=O)c2ccccc2N1Cc1ccccc1F` were 16.2%, 0.841%, 11.7%, 6.03% and 7.85%.
Taken in the same sequence, the figures for `O=C1Cc2c(-c3ccccc3OCc3ccccc3)n[nH]c2CN1Cc1ccccn1` were -16.1%, -8.26%, -11.6%, -27.8% and -7.35%.
Taken in the same sequence, the figures for `COCCN1CCCC2(CCN(C(=O)c3ccc(Cl)s3)C2)C1=O` (stereo not given) were -0.671%, 1.77%, -0.895%, -3.12% and -1.59%.
As for `Cc1ccc([S+](=O)([O-])N2CCCC(N3C(=O)c4c(c(C)nn4-c4ccccc4)C3C)C2)cc1` (stereo not given), the activity change, negative = inhibition in assay [1] is -2.44%; in assay [2], -2.61%; in assay [3] it was 1.28%; in assay [4], -8.62%; in assay [5], -13.6%.
In the case of `COc1ccccc1CCNC(=O)c1cc2n(n1)CC(C)(C(=O)NC1CCCCC1)N(C)C2=O` (stereo not given), the activity change, negative = inhibition in assay [1] is 2.73%; in assay [2], 2.62%; in assay [3], 5.04%; in assay [4], 3.88%; in assay [5], 2.08%.
In the case of `CCCN1C(=O)c2cc(C(=O)NCCCN3CCCCC3)nn2CC1(C)C(=O)NC1CCCC1` (stereo not given), the activity change, negative = inhibition in assay [1] was -1.11%; in assay [2] it was -0.578%; in assay [3] it was -3.71%; in assay [4] it was -6.35%; in assay [5], -2.19%.
For `C=C(C)C1=C[C@@]2(C)C(=CC1=O)CC[C@@H](O)[C@@H]2C`, in that order: 4.08%, 3.34%, 8.27%, -9.74% and 7.32%.
For `COc1ccc(NC2CCCN(C(=O)c3cn(CCCN)nn3)C2)cc1` (stereo not given), in that order: -16.6%, -8.59%, -4.89%, -13% and -23.1%.
Taken in the same sequence, the figures for `Cc1cc2c(cc1S(=O)(=O)Nc1ccc(Br)cc1)n(C)c(=O)n2C` were -7.34%, 0.259%, -12.1%, -18.6% and -13.2%.
Consider `Cc1ccc(CNc2nc3c(-c4cccc(F)c4)nnn3c3ccccc23)cc1`, for which the activity change, negative = inhibition was 0.736% in assay [1]; 5.7% in assay [2]; -1.68% in assay [3]; -3.54% in assay [4]; -5.94% in assay [5].
Taken in the same sequence, the figures for `CCN(CC)CCCCNc1ncc2cc(-c3c(Cl)cccc3Cl)c(NC(=O)NC(C)(C)C)nc2n1` were 3.97%, 12.9%, -31.6%, -12.8% and -1.99%.
For the compound `COc1cc(NS(=O)(=O)c2cc3c(cc2C)n(C)c(=O)n3C)cc(OC)c1`, the activity change, negative = inhibition in assay [1] came to 13.3%; in assay [2] it was 0%; in assay [3], 9.26%; in assay [4], 4.45%; in assay [5], 4.1%.
For `CC1(C)CC2C(C1)C(C)(O)C13CC1(COC3=O)C2O` (stereo not given), the activity change, negative = inhibition in assay [1] is 0.313%; in assay [2] it was -4.16%; in assay [3], 4.27%; in assay [4], -14.5%; in assay [5], -9.47%.
For `COc1cccc(-c2cc(NCc3ccc4c(c3)OCO4)nc(N)n2)c1`, in that order: -13.6%, -12.9%, -62.5%, -35.5% and -8.15%.
For `COc1ccc(-c2cnc3[nH]cc(CC(=O)N4CCNC(=O)C4)c3c2)cc1`, in that order: -9.37%, -8.75%, -7.38%, -9.52% and -20.9%.
